Laboratory results taken from PMC7819943, “Rice protein-binding microarrays: a tool to detect cis-acting elements near promoter regions in rice”.
The other results are listed elsewhere or left out.

The sequences below were run against T1, OsWOX13 (Oryza sativa, UniProt Q5QMM3 1-267) (assay: protein-binding microarray (RPBM); PBS, 2% BSA, 51.3 ng/ul salmon testes DNA, 50 uM zinc acetate, 200 nM TF, 25 C, 1 h; high values mean tight binding). Conditions: protein: recombinant; tags: N-terminal polyhistidine and DsRed monomer fusion (pET32a); label: CyDye5-dUTP incorporated in the synthesized complementary strand; 3' TTTTT single-stranded linker to array surface; dsDNA, one strand shown.
T1 sequence: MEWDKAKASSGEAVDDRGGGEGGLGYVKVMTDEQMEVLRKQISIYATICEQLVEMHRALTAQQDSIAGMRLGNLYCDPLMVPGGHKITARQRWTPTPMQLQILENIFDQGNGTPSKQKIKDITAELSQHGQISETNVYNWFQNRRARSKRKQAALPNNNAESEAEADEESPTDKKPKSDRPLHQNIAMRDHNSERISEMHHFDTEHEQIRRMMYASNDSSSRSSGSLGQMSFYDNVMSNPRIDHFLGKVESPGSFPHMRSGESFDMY
Procedure, shortened: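 Transcription factors were each fused at the N-terminus to a polyhistidine tag plus DsRed and expressed in E. coli BL21-CodonPlus before Ni–NTA purification. Binding to a double-stranded custom Agilent array was carried out with 200 nM protein at 25 °C for 1 h in PBS, 2% BSA, salmon testes DNA and 50 µM zinc acetate. The binding signal is per-feature fluorescence intensity, in arbitrary units, on an Axon 4000B scanner.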
With “CTTATTTATTTGTGATGATTTTAACTAATATTTGTTTCGACGGAGTCACCTAGTGCAG” the binding signal was 8420 fluorescence intensity (a.u.). With “GGAAATTGCTTAAATAAACATTCGACATCGCCATAAGATTCGGAGTCACCTAGTGCAG” the binding signal was 13200 fluorescence intensity (a.u.). For “CAAAATTGACACTAACAAATATCGGAGTACAGTGTTACAACGGAGTCACCTAGTGCAG”, the binding signal was 24500 fluorescence intensity (a.u.). “ATTAATTAGACTTAATAAATTGTCTCGCAGTTTATACGGCCGGAGTCACCTAGTGCAG” was tested, and the binding signal was 51300 fluorescence intensity (a.u.). In the case of “TTAAATTTTCAAACTTAATTTTGACATTGATTTTGAGATTCGGAGTCACCTAGTGCAG”, the binding signal is reported as 22100 fluorescence intensity (a.u.). In the case of “ATCTTCACGTTAAACAATCCAAATTGGAGTATTTGAAAAGCGGAGTCACCTAGTGCAG”, the binding signal is reported as 3820 fluorescence intensity (a.u.). “CAGAAAGTATCTAGTACTAATCAATTAGGCAACTGTAATGCGGAGTCACCTAGTGCAG” was tested, and the binding signal was 4090 fluorescence intensity (a.u.). For “ATAAAATCTCTTAATTGCCAAAGACTTATCATTTGGAGTACGGAGTCACCTAGTGCAG”, the binding signal was 9100 fluorescence intensity (a.u.). In the case of “GATCAAAAGAAATTTGCCAAATTTACTGCTTTGTGATGGGCGGAGTCACCTAGTGCAG”, the binding signal is reported as 3610 fluorescence intensity (a.u.). For “GTAAAATTCCTCGTGATGACATGGACTGATATTTTCCCTGCGGAGTCACCTAGTGCAG”, the binding signal was 4550 fluorescence intensity (a.u.). In the case of “GGTTTATCGAATCATCGTTGATTACTCGATTGGTTAAGAACGGAGTCACCTAGTGCAG”, the binding signal is reported as 3150 fluorescence intensity (a.u.). “GCTATAGCCAATCAATATGAAATCGTTGTCTCCTACAGTACGGAGTCACCTAGTGCAG” was tested, and the binding signal was 14900 fluorescence intensity (a.u.). “AAATTTGATGATATGATGGATGGATCCAGATGGGAGGAGTCGGAGTCACCTAGTGCAG” was tested, and the binding signal was 13200 fluorescence intensity (a.u.). For “CGTGCTAATTAGCCTGTCCTAATGATGACCATACGTACACCGGAGTCACCTAGTGCAG”, the binding signal was 31100 fluorescence intensity (a.u.). With “GTTTTAATGAAGCATGTAATTTATCTCTTCATTTAAATCTCGGAGTCACCTAGTGCAG” the binding signal was 6380 fluorescence intensity (a.u.). For “AATGATTTTATGGAGAAATCACTTCATCACAAGAGTGGAACGGAGTCACCTAGTGCAG”, the binding signal was 18800 fluorescence intensity (a.u.). For “ATAAAATGATTTTCCGACCATTTGAGCAATGCATCAAATGCGGAGTCACCTAGTGCAG”, the binding signal was 7300 fluorescence intensity (a.u.). “AATCTAATAATTAATTTATACAATAATTAACTATAAATATCGGAGTCACCTAGTGCAG” was tested, and the binding signal was 17400 fluorescence intensity (a.u.). “ATCTGATTAACCTTAGCTTCTTCGCATTAGACATACTACACGGAGTCACCTAGTGCAG” was tested, and the binding signal was 17800 fluorescence intensity (a.u.). “TAAACTGTACATGTATAATTAATAGATATCAAGCTAGCTACGGAGTCACCTAGTGCAG” was tested, and the binding signal was 6040 fluorescence intensity (a.u.). “TATCCCTTTGATTATCGTCGGTTACTCCTTTGCCATCTCCCGGAGTCACCTAGTGCAG” was tested, and the binding signal was 8050 fluorescence intensity (a.u.). For “ACGTCGAACCCACACTCACCAATCAATCCGCCTCTCCGCACGGAGTCACCTAGTGCAG”, the binding signal was 3660 fluorescence intensity (a.u.). For “TGTTGCTCCCTGATTGGGTCGAGCCGTGCGCATCTGCCGTCGGAGTCACCTAGTGCAG”, the binding signal was 11800 fluorescence intensity (a.u.). With “ACCAATTAATTAACCACGCTAGCCCAGAGTGATCGATAGCCGGAGTCACCTAGTGCAG” the binding signal was 33600 fluorescence intensity (a.u.). “AACACATGATTAATTAATTATAAACTAAAGTAACTTTAAACGGAGTCACCTAGTGCAG” was tested, and the binding signal was 41500 fluorescence intensity (a.u.). “CCATCTGTGATACTTGTCTGATTAGCTCGATTTTATGAACCGGAGTCACCTAGTGCAG” was tested, and the binding signal was 7310 fluorescence intensity (a.u.). With “TAATTAATTGGGCCAAAATCCCTACTACATGCACCATTACCGGAGTCACCTAGTGCAG” the binding signal was 18500 fluorescence intensity (a.u.). For “AGTCGCGATCCAATCAAGTAAATGCTGCAATTTCTCGTTGCGGAGTCACCTAGTGCAG”, the binding signal was 12800 fluorescence intensity (a.u.). “ATTTGTTAATTTTGTTATAATTTGTAGAAGTTAAATTTGACGGAGTCACCTAGTGCAG” was tested, and the binding signal was 13700 fluorescence intensity (a.u.). For “CGGATGATTTAGTTTCATCACAACAACCTAACCAGTTGATCGGAGTCACCTAGTGCAG”, the binding signal was 15000 fluorescence intensity (a.u.). “TCCAATCTAATCCAATTTATTGCTTGTGTTCTGCGTACTGCGGAGTCACCTAGTGCAG” was tested, and the binding signal was 9760 fluorescence intensity (a.u.). “AGTTTACAGAAAACATGATTTTCTCTAATGATGTTACAGACGGAGTCACCTAGTGCAG” was tested, and the binding signal was 3740 fluorescence intensity (a.u.). In the case of “TTGATCATGATGATATTTAATTTGTTTAGATCACACACTACGGAGTCACCTAGTGCAG”, the binding signal is reported as 10200 fluorescence intensity (a.u.). In the case of “CTTGATTACCGTCATTAGTCAAAATCGCAGTTCACATCATCGGAGTCACCTAGTGCAG”, the binding signal is reported as 37400 fluorescence intensity (a.u.). With “GTGATTAACACATTCCACTTCCGAGTTCTTACAATGGTTCCGGAGTCACCTAGTGCAG” the binding signal was 6780 fluorescence intensity (a.u.). In the case of “GTCATATAATTGCAACAAATATACTCCTAGCTCGCTCTCTCGGAGTCACCTAGTGCAG”, the binding signal is reported as 13000 fluorescence intensity (a.u.). With “CCTTGCGGTTCAATCAACGTTCCAAGTTCAACGATCATGTCGGAGTCACCTAGTGCAG” the binding signal was 9270 fluorescence intensity (a.u.). “CGTTGTTTTCATGATTGTCACCATATGTGGTCTGCATTATCGGAGTCACCTAGTGCAG” was tested, and the binding signal was 6200 fluorescence intensity (a.u.). In the case of “ATGATTTGTGGTAAGACAGTAGCAAATCAAAGCATCGGCTCGGAGTCACCTAGTGCAG”, the binding signal is reported as 10600 fluorescence intensity (a.u.). In the case of “ACGATGATTGCGCAGCGTACAAGTCAAGGCCAAGTCGTCGCGGAGTCACCTAGTGCAG”, the binding signal is reported as 37000 fluorescence intensity (a.u.). For “TATAATAGATAAATAAATGCATGTTTACTTTTATTATAGTCGGAGTCACCTAGTGCAG”, the binding signal was 17300 fluorescence intensity (a.u.). With “GTCACTGATAGGTATCATCCGTGACGGGCTTAGGTTTTATCGGAGTCACCTAGTGCAG” the binding signal was 6180 fluorescence intensity (a.u.).
